Data: the supplement of paper PMC8728848
This is one part of the list.

What was measured:
Experiment in all cases: glycan array binding signal (z-score within array); higher = stronger binding
Settings in all cases: glycan notation: IUPAC condensed, linker removed
[1] = target: Gal3S(b1-4)Glc
In short: (§1)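 Columns mapping to the same glycan were averaged after glycan names were converted to IUPAC-condensed notation. The data come from 3228 arrays in the Consortium for Functional Glycomics database, limited to those with an available protein sequence. Binding is reported as a within-array Z-score averaged across arrays of one protein sequence and across linkers.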

[2] = target: Gal3S(b1-4)Glc6S
In short: as §1

[3] = target: Gal3S(b1-4)GlcNAc
In short: as §1

[4] = target: Gal3S(b1-4)[Fuc(a1-3)]Glc6S
In short: as §1

[5] = target: Gal3S(b1-4)[Fuc(a1-3)]GlcNAc
In short: as §1

[6] = target: Gal3S(b1-4)[Fuc(a1-3)]GlcNAc6S
In short: as §1

[7] = target: Gal3S4S(b1-4)GlcNAc
In short: as §1

[8] = target: Gal3S6S(b1-4)GlcNAc
In short: as §1

[9] = target: Gal3S6S(b1-4)GlcNAc6S
In short: as §1

[10] = target: Gal4S(b1-4)GlcNAc
In short: as §1

[11] = target: Gal4S6S(b1-4)GlcNAc
In short: as §1

[12] = target: Gal6P(b1-4)GlcNAc
In short: as §1

[13] = target: Gal6S(b1-3)GlcNAc
In short: as §1

[14] = target: Gal6S(b1-3)GlcNAc6S
In short: as §1

[15] = target: Gal6S(b1-4)Glc
In short: as §1

[16] = target: Gal6S(b1-4)Glc6S
In short: as §1

[17] = target: Gal6S(b1-4)GlcNAc
In short: as §1

[18] = target: Gal6S(b1-4)GlcNAc6S
In short: as §1

[19] = target: GalNAc(a1-3)Gal
In short: as §1

[20] = target: GalNAc(a1-3)GalNAc
In short: as §1

[21] = target: GalNAc(a1-3)GalNAc(b1-3)Gal(a1-4)Gal(b1-4)Glc
In short: as §1

[22] = target: GalNAc(a1-3)GalNAc(b1-3)Gal(a1-4)Gal(b1-4)GlcNAc
In short: as §1

[23] = target: GalNAc(b1-3)Gal
In short: as §1

[24] = target: GalNAc(b1-3)Gal(a1-4)Gal(b1-4)GlcNAc
In short: as §1

[25] = target: GalNAc(b1-3)Gal(a1-4)Gal(b1-4)GlcNAc(b1-3)Gal(b1-4)Glc
In short: as §1

[26] = target: GalNAc(b1-3)Gal(a1-6)Gal(b1-4)Glc
In short: as §1

[27] = target: GalNAc(b1-3)GalNAc
In short: as §1

[28] = target: GalNAc(b1-3)GlcNAc
In short: as §1

[29] = target: GalNAc(b1-4)Gal(b1-4)Glc
In short: as §1

[30] = target: GalNAc(b1-4)GlcNAc
In short: as §1

[31] = target: GalNAc(b1-4)GlcNAc(b1-2)Man
In short: as §1

[32] = target: GalNAc(b1-4)GlcNAc(b1-2)Man(a1-3)[GalNAc(b1-4)GlcNAc(b1-2)Man(a1-6)]Man(b1-4)GlcNAc(b1-4)GlcNAc
In short: as §1

[33] = target: GalNAc(b1-4)GlcNAc(b1-3)GalNAc(b1-4)GlcNAc
In short: as §1

[34] = target: GalNAc(b1-4)GlcNAc6S
In short: as §1

[35] = target: GalNAc(b1-6)GalNAc
In short: as §1

[36] = target: GalNAc3S(b1-4)GlcNAc
In short: as §1

[37] = target: GalNAc3S(b1-4)GlcNAc3S
In short: as §1

[38] = target: GalNAc3S(b1-4)[Fuc(a1-3)]GlcNAc
In short: as §1

[39] = target: GalNAc4S6S(b1-4)GlcNAc
In short: as §1

[40] = target: GalNAc6S(b1-4)GlcNAc
In short: as §1

[41] = target: Glc(a1-4)Glc
In short: as §1

[42] = target: Glc(a1-4)Glc(a1-4)Glc(a1-4)Glc
In short: as §1

[43] = target: Glc(a1-6)Glc(a1-6)Glc
In short: as §1

[44] = target: Glc(a1-6)Glc(a1-6)Glc(a1-6)Glc
In short: as §1

[45] = target: Glc(b1-4)Glc
In short: as §1

B1: Pwp2 (Candida glabrata) (protein)
chain: MGSSHHHHHHSSGLVPRGSHMASKNPVELNNVCTFPNDYGRIPGFTVLVGRLGLLISASDYKELLRYPGAFLIATQDTMTTSPNFELTGFPFFTGLYGLTVFPLDLLVELRGYFVPPNSGQYTFTLSDSDDAAIIFLGNPSAFPCGDLQNWPKPSEEDITVTDHLFPSRTLYLIEGVAYPMRIAYYNGIGAGRLNAAFIDPSGTRHTNWEGYIWQYDPCSTCTYS
glycan array binding signal (z-score) [1]: -0.429
glycan array binding signal (z-score) [2]: -0.394
glycan array binding signal (z-score) [3]: -0.274
glycan array binding signal (z-score) [4]: 0.408
glycan array binding signal (z-score) [5]: -0.293
glycan array binding signal (z-score) [6]: -0.372
glycan array binding signal (z-score) [7]: -0.663
glycan array binding signal (z-score) [8]: -0.853
glycan array binding signal (z-score) [9]: -0.545
glycan array binding signal (z-score) [10]: -0.626
glycan array binding signal (z-score) [11]: -0.555
glycan array binding signal (z-score) [12]: -0.372
glycan array binding signal (z-score) [13]: -0.708
glycan array binding signal (z-score) [14]: -0.223
glycan array binding signal (z-score) [15]: -0.421
glycan array binding signal (z-score) [16]: -0.419
glycan array binding signal (z-score) [17]: -0.694
glycan array binding signal (z-score) [18]: -0.679
glycan array binding signal (z-score) [19]: -0.695
glycan array binding signal (z-score) [20]: -0.731
glycan array binding signal (z-score) [21]: -0.47
glycan array binding signal (z-score) [22]: -0.401
glycan array binding signal (z-score) [23]: 0.43
glycan array binding signal (z-score) [24]: -0.501
glycan array binding signal (z-score) [25]: -0.304
glycan array binding signal (z-score) [26]: -0.439
glycan array binding signal (z-score) [27]: 1.1
glycan array binding signal (z-score) [28]: 0.401
glycan array binding signal (z-score) [29]: 0.196
glycan array binding signal (z-score) [30]: 0.045
glycan array binding signal (z-score) [31]: 0.217
glycan array binding signal (z-score) [32]: -0.529
glycan array binding signal (z-score) [33]: -0.053
glycan array binding signal (z-score) [34]: -0.448
glycan array binding signal (z-score) [35]: 0.08
glycan array binding signal (z-score) [36]: 0.356
glycan array binding signal (z-score) [37]: -0.112
glycan array binding signal (z-score) [38]: -0.648
glycan array binding signal (z-score) [39]: 0.508
glycan array binding signal (z-score) [40]: -0.497
glycan array binding signal (z-score) [41]: 0.073
glycan array binding signal (z-score) [42]: -0.136
glycan array binding signal (z-score) [43]: 0.7
glycan array binding signal (z-score) [44]: 0.246
glycan array binding signal (z-score) [45]: -0.445
